Like-named read-outs stand apart in the source and are kept apart here. No constants are given. Whether binding was seen depends on the method and setting. Binding seen in cells or lysates may run through a third protein. Some results given as binding are weak or reduced against the parent protein; the word gives no strength. For part of these data: Where a sequence is shown, tags or fusion partners need not be part of it.
Legend:
[1] = target: T1, EGFP-IFT38 CC construct (human) (UniProt Q96AJ1); assay: co-IP; as the VIP assay (EGFP fusion precipitated from HEK293T lysates with GST-tagged anti-GFP nanobody beads), the beads then analysed by conventional immunoblotting with anti-mChe or anti-RFP and anti-GFP antibodies
T1 sequence: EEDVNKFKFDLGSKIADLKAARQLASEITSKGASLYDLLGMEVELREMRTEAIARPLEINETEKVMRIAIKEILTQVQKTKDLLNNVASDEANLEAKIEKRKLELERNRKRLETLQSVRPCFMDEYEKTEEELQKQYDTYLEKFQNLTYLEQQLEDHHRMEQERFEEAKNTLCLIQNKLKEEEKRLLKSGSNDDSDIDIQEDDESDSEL

By UniProt entry, the sequences of proteins in these tests, tags left out. Where a name states a change or a piece, a line headed by the entry shows the natural chain unless it says otherwise.
UniProt Q8NFJ9: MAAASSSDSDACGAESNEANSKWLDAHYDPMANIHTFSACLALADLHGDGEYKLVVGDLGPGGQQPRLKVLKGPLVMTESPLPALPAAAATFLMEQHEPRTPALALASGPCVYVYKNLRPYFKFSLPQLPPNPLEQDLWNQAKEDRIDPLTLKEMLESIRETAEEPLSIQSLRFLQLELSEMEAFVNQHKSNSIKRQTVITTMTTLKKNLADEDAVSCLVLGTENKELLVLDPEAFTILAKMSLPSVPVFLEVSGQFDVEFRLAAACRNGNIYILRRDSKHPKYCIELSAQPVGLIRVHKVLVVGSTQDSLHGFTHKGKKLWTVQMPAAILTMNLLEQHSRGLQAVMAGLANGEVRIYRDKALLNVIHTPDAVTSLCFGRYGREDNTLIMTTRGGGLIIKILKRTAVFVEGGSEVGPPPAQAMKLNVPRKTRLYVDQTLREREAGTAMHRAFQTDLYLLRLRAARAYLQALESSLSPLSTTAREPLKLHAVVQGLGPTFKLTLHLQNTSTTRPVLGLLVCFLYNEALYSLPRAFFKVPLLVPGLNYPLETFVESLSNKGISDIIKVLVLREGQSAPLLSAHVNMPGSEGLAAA
UniProt Q9Y366: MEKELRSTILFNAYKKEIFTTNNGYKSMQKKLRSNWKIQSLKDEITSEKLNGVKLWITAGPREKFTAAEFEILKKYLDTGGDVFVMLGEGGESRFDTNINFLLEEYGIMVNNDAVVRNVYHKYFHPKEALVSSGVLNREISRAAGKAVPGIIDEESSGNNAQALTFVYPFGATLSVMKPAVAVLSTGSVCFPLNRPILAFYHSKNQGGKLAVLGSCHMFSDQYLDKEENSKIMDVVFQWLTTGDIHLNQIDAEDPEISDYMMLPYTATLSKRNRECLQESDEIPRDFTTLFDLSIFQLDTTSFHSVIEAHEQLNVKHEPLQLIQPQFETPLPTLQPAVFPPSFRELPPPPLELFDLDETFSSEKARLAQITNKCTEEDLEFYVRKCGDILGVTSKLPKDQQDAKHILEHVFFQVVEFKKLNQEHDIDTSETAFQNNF

[2] = target: T2, EGFP-IFT38 CT construct (human) (UniProt Q96AJ1); assay: as above
T2 sequence: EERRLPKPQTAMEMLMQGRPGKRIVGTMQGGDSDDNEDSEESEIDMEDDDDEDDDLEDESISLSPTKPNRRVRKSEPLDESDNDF

EGFP-IFT38(WT) (human) [3] = target: T3, EGFP-IFT38(WT) (human) (UniProt Q96AJ1); assay: as above
T3 sequence: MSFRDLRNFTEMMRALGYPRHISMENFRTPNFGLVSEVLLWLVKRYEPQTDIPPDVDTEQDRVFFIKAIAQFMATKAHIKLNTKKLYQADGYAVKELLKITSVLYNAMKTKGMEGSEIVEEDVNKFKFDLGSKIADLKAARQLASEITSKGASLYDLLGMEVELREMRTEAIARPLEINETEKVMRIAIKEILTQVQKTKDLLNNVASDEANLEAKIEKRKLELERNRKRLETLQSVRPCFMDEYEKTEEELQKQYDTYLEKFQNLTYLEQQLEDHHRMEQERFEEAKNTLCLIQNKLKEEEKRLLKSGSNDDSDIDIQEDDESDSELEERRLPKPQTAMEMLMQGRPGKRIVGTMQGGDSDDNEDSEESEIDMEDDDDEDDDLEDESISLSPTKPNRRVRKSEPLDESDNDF

EGFP-IFT38(ΔC) (human) [4] = target: T4, EGFP-IFT38(ΔC) (human) (UniProt Q96AJ1); assay: as above
T4 sequence: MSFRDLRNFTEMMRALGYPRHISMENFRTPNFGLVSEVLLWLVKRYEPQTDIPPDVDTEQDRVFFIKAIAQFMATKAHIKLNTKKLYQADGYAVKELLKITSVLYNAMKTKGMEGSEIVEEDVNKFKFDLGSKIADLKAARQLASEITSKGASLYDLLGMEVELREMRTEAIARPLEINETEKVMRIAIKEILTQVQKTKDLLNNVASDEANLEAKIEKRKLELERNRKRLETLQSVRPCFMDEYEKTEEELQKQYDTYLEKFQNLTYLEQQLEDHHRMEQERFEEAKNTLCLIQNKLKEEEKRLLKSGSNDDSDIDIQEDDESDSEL

EGFP-IFT38(ΔN) (human) [5] = target: T5, EGFP-IFT38(ΔN) (human) (UniProt Q96AJ1); assay: as above
T5 sequence: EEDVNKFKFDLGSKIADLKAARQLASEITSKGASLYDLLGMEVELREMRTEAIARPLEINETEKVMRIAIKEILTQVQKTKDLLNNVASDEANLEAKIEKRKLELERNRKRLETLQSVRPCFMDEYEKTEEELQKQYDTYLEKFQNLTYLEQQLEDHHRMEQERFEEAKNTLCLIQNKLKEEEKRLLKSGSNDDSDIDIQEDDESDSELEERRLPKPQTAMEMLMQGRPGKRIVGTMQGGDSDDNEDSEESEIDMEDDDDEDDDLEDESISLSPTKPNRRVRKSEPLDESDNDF

[6] = target: T1, EGFP-IFT38 CC construct (human); assay: co-IP; visible immunoprecipitation (VIP) assay: lysates of co-transfected HEK293T cells (HMDEKN buffer: 10 mM HEPES pH 7.4, 5 mM MgSO4, 1 mM DTT, 0.5 mM EDTA, 25 mM KCl, 0.05% NP-40) precipitated by the EGFP fusion with GST-tagged anti-GFP nanobody on glutathione-Sepharose 4B beads; red fluorescence on the beads seen by microscopy
[7] = target: T2, EGFP-IFT38 CT construct (human); assay: as above
EGFP-IFT38(WT) (human) [8] = target: T3, EGFP-IFT38(WT) (human); assay: as above
EGFP-IFT38(ΔC) (human) [9] = target: T4, EGFP-IFT38(ΔC) (human); assay: as above
EGFP-IFT38(ΔN) (human) [10] = target: T5, EGFP-IFT38(ΔN) (human); assay: as above
IFT25–IFT27 [11] = target: T6, IFT25–IFT27 (UniProt Q9Y547); assay: as above
T6 sequence 1: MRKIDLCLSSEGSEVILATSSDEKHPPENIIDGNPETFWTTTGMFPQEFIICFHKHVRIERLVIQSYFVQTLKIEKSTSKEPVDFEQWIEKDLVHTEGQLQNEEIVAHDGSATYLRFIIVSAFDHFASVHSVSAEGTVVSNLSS
T6 sequence 2: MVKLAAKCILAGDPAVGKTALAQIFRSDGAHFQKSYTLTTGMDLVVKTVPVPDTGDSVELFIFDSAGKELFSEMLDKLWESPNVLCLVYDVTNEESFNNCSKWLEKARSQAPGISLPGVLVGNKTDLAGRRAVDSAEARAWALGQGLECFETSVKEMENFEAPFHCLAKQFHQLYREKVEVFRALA

IFT25–IFT27 [12] = target: T6, IFT25–IFT27; assay: as above; remark: listed apart in the source

mChe-BBS1+BBS2+BBS9 (co-expressed) (from UniProt Q8NFJ9 1-593; Q9BXC9 1-721; Q3SYG4 1-887) (complex)
binding [1]: no binding
binding [2]: no binding
binding (EGFP-IFT38(WT) (human) [3]): binds
binding (EGFP-IFT38(ΔC) (human) [4]): no binding
binding (EGFP-IFT38(ΔN) (human) [5]): binds
binding [6]: no binding
binding [7]: no binding
binding (EGFP-IFT38(WT) (human) [8]): binds
binding (EGFP-IFT38(ΔC) (human) [9]): no binding
binding (EGFP-IFT38(ΔN) (human) [10]): binds
binding (IFT25–IFT27 [11]): no binding

mChe-fused IFT52+IFT57+IFT88 (co-expressed; the other subunits of the connecting tetramer) (from UniProt Q9Y366 1-437; Q9NWB7 1-429; Q13099 1-824) (complex)
binding (EGFP-IFT38(WT) (human) [3]): binds
binding (EGFP-IFT38(ΔC) (human) [4]): binds
binding (EGFP-IFT38(WT) (human) [8]): binds
binding (EGFP-IFT38(ΔC) (human) [9]): binds

B1: linker subunits of the BBSome (co-expressed, Fig. S1A) (complex, UniProt Q96RK4 1-519; A8MTZ0 1-92; Q8TAM2 1-541)
chain 1: MAEERVATRTQFPVSTESQKPRQKKAPEFPILEKQNWLIHLHYIRKDYEACKAVIKEQLQETQGLCEYAIYVQALIFRLEGNIQESLELFQTCAVLSPQSADNLKQVARSLFLLGKHKAAIEVYNEAAKLNQKDWEISHNLGVCYIYLKQFNKAQDQLHNALNLNRHDLTYIMLGKIHLLEGDLDKAIEVYKKAVEFSPENTELLTTLGLLYLQLGIYQKAFEHLGNALTYDPTNYKAILAAGSMMQTHGDFDVALTKYRVVACAVPESPPLWNNIGMCFFGKKKYVAAISCLKRANYLAPFDWKILYNLGLVHLTMQQYASAFHFLSAAINFQPKMGELYMLLAVALTNLEDIENAKRAYAEAVHLDKCNPLVNLNYAVLLYNQGEKKNALAQYQEMEKKVSLLKDNSSLEFDSEMVEMAQKLGAALQVGEALVWTKPVKDPKSKHQTTSTSKPASFQQPLGSNQALGQAMSSAAAYRTLPSGAGGTSQFTKPPSLPLEPEPAVESSPTETSEQIREK
chain 2: MLKAAAKRPELSGKNTISNNSDMAEVKSMFREVLPKQGPLFVEDIMTMVLCKPKLLPLKSLTLEKLEKMHQAAQNTIRQQEMAEKDQRQITH
chain 3: MSSEMEPLLLAWSYFRRRKFQLCADLCTQMLEKSPYDQEPDPELPVHQAAWILKARALTEMVYIDEIDVDQEGIAEMMLDENAIAQVPRPGTSLKLPGTNQTGGPSQAVRPITQAGRPITGFLRPSTQSGRPGTMEQAIRTPRTAYTARPITSSSGRFVRLGTASMLTSPDGPFINLSRLNLTKYSQKPKLAKALFEYIFHHENDVKTIHLEDVVLHLGIYPFLLRNKNHIEKNALDLAALSTEHSQYKDWWWKVQIGKCYYRLGMYREAEKQFKSALKQQEMVDTFLYLAKVYVSLDQPVTALNLFKQGLDKFPGEVTLLCGIARIYEEMNNMSSAAEYYKEVLKQDNTHVEAIACIGSNHFYSDQPEIALRFYRRLLQMGIYNGQLFNNLGLCCFYAQQYDMTLTSFERALSLAENEEEAADVWYNLGHVAVGIGDTNLAHQCFRLALVNNNNHAEAYNNLAVLEMRKGHVEQARALLQTASSLAPHMYEPHFNFATISDKIGDLQRSYVAAQKSEAAFPDHVDTQHLIKQLRQHFAML
binding (IFT25–IFT27 [12]): no binding

B2: ARL6(WT) (protein, UniProt Q9H0F7 1-186)
chain: MGLLDRLSVLLGLKKKEVHVLCLGLDNSGKTTIINKLKPSNAQSQNILPTIGFSIEKFKSSSLSFTVFDMSGQGRYRNLWEHYYKEGQAIIFVIDSSDRLRMVVAKEELDTLLNHPDIKHRRIPILFFANKMDLRDAVTSVKVSQLLCLENIKDKPWHICASDAIKGEGLQEGVDWLQDQIQTVKT
binding (IFT25–IFT27 [12]): no binding

B3: ARL6(T31R) (protein, UniProt Q9H0F7 1-186)
chain: MGLLDRLSVLLGLKKKEVHVLCLGLDNSGKRTIINKLKPSNAQSQNILPTIGFSIEKFKSSSLSFTVFDMSGQGRYRNLWEHYYKEGQAIIFVIDSSDRLRMVVAKEELDTLLNHPDIKHRRIPILFFANKMDLRDAVTSVKVSQLLCLENIKDKPWHICASDAIKGEGLQEGVDWLQDQIQTVKT
binding (IFT25–IFT27 [12]): no binding

From PMC6777367
